The other results are listed elsewhere or left out.
System: T1, C. trachomatis L2/434/Bu expressing GFP (CTL2-GFP)
T1 construct: L2/434/Bu GFP intracellular growth in HeLa cells
Design: species or system HeLa; C. trachomatis total inclusion area by high-content imaging, normalised to DMSO
Conditions: total inclusion area; 28.5 h, 10 µM; inhibitor
Method in brief: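 Host cell viability was gauged from Hoechst-stained nuclei counts, while chlamydial growth was taken from total inclusion area and inclusion number per well. Cells were fixed and imaged by high-content microscopy once bulk GFP and resorufin fluorescence had been measured.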

Going from `CCc1ccc(NC(=O)CN2CCN(c3ccccc3F)CC2)cc1` [CBK307549] to `O=C(CO)N1CC2(CCN(Cc3ccc(Cl)c(Cl)c3)CC2)c2ccccc21` [CBK131495], the “% of control remaining” value rises from 23.1001 to 74.9375.

Going from `Cc1nc(-c2cccnc2)sc1C(=O)NC(C)C1CC2CCC1C2` (centres unmarked) [CBK281637] to `CC(NC(=O)C(C)(C)C)c1nc(-c2cccnc2)n[nH]1` (centres unmarked) [CBK104007], the “% of control remaining” value falls from 104.404 to 100.145.

Compared with `O=C(O)C(Cc1ccccc1)Nc1ncnc2sc3c(c12)CCC3` (centres unmarked) [CBK265266], `COC(=O)c1cn(Cc2ccccc2)nn1` [CBK073903] is lower in “% of control remaining” value: 108.212 for the first, 79.3067 for the second.

First: CCCN1C(C)=NS(=O)(=O)c2cc(C(=O)O)ccc21 [CBK287251]
Second: CCC(Sc1nc2ccc(F)cc2[nH]1)C(=O)O (centres unmarked) [CBK287174]
The “% of control remaining” value of the first is lower: 42.4645 for the first, 88.7304 for the second.

Going from `COC(=O)c1ccc(NC(=O)N2CCCCC2CCn2ccnc2)cc1` (centres unmarked) [CBK307195] to `CN1CCCC1CCNC(=O)c1ccc(-c2ccoc2)nc1` (centres unmarked) [CBK156255], the “% of control remaining” value falls from 114.903 to 112.418.

First: CN(CC(=O)Nc1sc2c(c1C#N)CCCC2)Cc1cnn(C)c1 [CBK304618]
Second: O=C(NCCC1=CCCCC1)Nc1ccc(F)c(F)c1F [CBK043265]
The “% of control remaining” value of the first is lower: 84.7769 for the first, 93.5971 for the second.

Compared with `Cc1cc(Cc2cnc(NC(=O)C3CCS(=O)(=O)C3)s2)ccc1Br` (centres unmarked) [CBK298281], `Cn1ncc(N2CCC(CNC(=O)c3ccc(F)cc3Cl)C2)cc1=O` (centres unmarked) [CBK306643] is lower in “% of control remaining” value: 95.7635 for the first, 25.1459 for the second.

Compared with `CCN(CC)C(=O)CN1CCCN(c2cc(OCc3cc(C)on3)ncn2)CC1` [CBK083337T], `CCN(CC)C(=O)CN(CCc1ccc(OC)c(OC)c1)C(=O)NCCN1CCOCC1` [CBK158734] is higher in “% of control remaining” value: 51.5062 for the first, 91.2189 for the second.

Compared with `Cc1ccc(S(=O)(=O)NCC23C=CC(O2)C2C(=O)N(Cc4ccccc4)C(=O)C23)cc1` (centres unmarked) [CBK261170], `CC(C)c1ccc(N2C(=O)N[C@@H]3CCN(S(=O)(=O)c4ccccc4)[C@@H]3C2=O)cc1` [CBK289289] is higher in “% of control remaining” value: 85.0078 for the first, 107.89 for the second.

First: O=C(OCc1ccccc1)N1CCC(n2ccn(C(=O)CCC3CCCC3)c2=O)CC1 [CBK106670]
Second: NC[C@H]1CC[C@H](C(=O)NCC2CCCN(Cc3ccccc3)C2)CC1 (some centres unmarked) [CBK282764]
The “% of control remaining” value of the first is lower: 91.8057 for the first, 97.3004 for the second.

Compared with `Nc1ncnc2c1nc1n2[C@H]2C[C@@H](O)[C@H](O2)[C@H]1O` [CBK201183], `CNc1nc(NCCc2cnc(=O)n(C)c2O)cc(C2CCOC2)n1` (centres unmarked) [CBK307156] is lower in “% of control remaining” value: 97.1307 for the first, 69.9751 for the second.

First: COC(=O)c1ccccc1S(=O)(=O)n1c(=O)n(CCc2c[nH]c3ccccc23)c2ccccc21 [CBK106509]
Second: O=C(Nc1ccc(S(=O)(=O)Nc2nccc(C3Cc4ccccc4C(=O)O3)n2)cc1)c1ccccc1 (centres unmarked) [CBK267306]
The “% of control remaining” value of the first is lower: 98.6911 for the first, 105.547 for the second.

Going from `CC(C)(C)c1ccc(-c2cnc3nc(O)ccc3c2)cc1` [CBK081284] to `Cc1cccc(CN(CCN)C(=O)Nc2ccc(C(C)(C)C)cc2)n1` [CBK046230C], the “% of control remaining” value falls from 56.6907 to 48.3311.

Going from `Cc1cc(C(=O)N2CCCc3ccccc32)n[nH]1` [CBK200346] to `O=C(c1cnccc1C(F)(F)F)N1CCc2ccccc21` [CBK200401], the “% of control remaining” value falls from 117.194 to 100.01.

First: COCCNc1nccnc1-c1cccs1 [CBK036739]
Second: O=C(NCCc1ccccc1)c1nc(-c2ccncc2)cs1 [CBK288604]
The “% of control remaining” value of the first is lower: 83.2583 for the first, 92.2373 for the second.

First: O=C(NC(Cc1ccccc1)N1C(=O)c2ccccc2C1=O)N1CCCc2ccccc21 (centres unmarked) [CBK265551]
Second: O=C(Nc1ccccc1[N+](=O)[O-])C1(c2ccccc2)CCN(S(=O)(=O)c2ccccc2)CC1 [CBK267796]
The “% of control remaining” value of the first is lower: 81.3967 for the first, 90.3023 for the second.

First: COc1cc2c(cc1OC)CN(CC(O)COc1cccc3c1CCCC3)CC2 (centres unmarked) [CBK003828]
Second: COc1cc2c(cc1OC)CN(CC(N)=O)CC2 [CBK126391]
The “% of control remaining” value of the first is higher: 108.225 for the first, 95.2895 for the second.

Compared with `Cc1ccc(Nc2cc(-c3ccsc3)ncn2)cc1NS(C)(=O)=O` [CBK091149], `COc1ccc(Nc2cccc(-c3cnc(OC)nc3OC)n2)cc1` [CBK036825] is higher in “% of control remaining” value: 63.3938 for the first, 117.24 for the second.

Going from `Nc1nc2cccnc2cc1-c1cccc(C(F)(F)F)c1` [CBK081200] to `CCCNC(=O)CN(C)Cc1nc(-c2cccc(C(F)(F)F)c2)no1` [CBK305672], the “% of control remaining” value falls from 87.4227 to 71.1181.

Going from `CSc1ncccc1C(=O)NCc1ccc(NC(C)=O)cc1` [CBK305009] to `O=C(NC(=S)Nc1ccccc1C(=O)O)c1ccc(Cl)cc1` [CBK265044], the “% of control remaining” value falls from 82.5041 to 78.7506.

Compared with `CCn1c(SCC(=O)Nc2ccc(C#N)cc2)nnc1-c1ccncc1` [CBK270102], `CCN(Cc1ccncc1)C(=O)NCc1cccnc1` [CBK145054] is lower in “% of control remaining” value: 109.744 for the first, 88.8895 for the second.

First: COc1ccc(-c2cnc(NCCOc3ccccc3)c(C(=O)NCC3COc4ccccc4O3)c2)cc1 (centres unmarked) [CBK076332]
Second: COc1ccc(CCNC(=O)c2ccccc2NS(=O)(=O)c2cc(C(=O)O)ccc2OC)cc1 [CBK297506]
The “% of control remaining” value of the first is lower: 85.9183 for the first, 108.369 for the second.

First: CCN(c1ccccc1C(=O)O)S(=O)(=O)/C=C/c1ccccc1 [CBK287236]
Second: COc1ccc(/C=C/C(=O)O)cc1S(=O)(=O)NCc1ccccc1 [CBK287252]
The “% of control remaining” value of the first is higher: 88.7141 for the first, 60.5613 for the second.

Compared with `O=C(/C=C/c1ccc2c(c1)OCO2)NCc1ccc(-c2csnn2)cc1` [CBK149297], `CCOC(=O)C1(Cc2cc(-c3ccc(F)cc3)no2)CCNCC1` [CBK284581] is lower in “% of control remaining” value: 87.4518 for the first, 79.9611 for the second.

First: Cc1ccc2cc(S(=O)(=O)NCCCC(=O)O)ccc2c1 [CBK299818]
Second: O=C(O)CCCNS(=O)(=O)c1ccc([N+](=O)[O-])cc1 [CBK261317]
The “% of control remaining” value of the first is lower: 97.9713 for the first, 112.571 for the second.

First: O=C(c1ccc(N2CCSCC2)nc1)N1CCC(N2CCOCC2)CC1 [CBK306582]
Second: O=C(O)C1CCCCC1C(=O)N1CCN(C(c2ccccc2)c2ccccc2)CC1 (centres unmarked) [CBK265480]
The “% of control remaining” value of the first is lower: 76.9435 for the first, 90.6979 for the second.

First: Cc1nc(C)c(CCC(=O)Nc2cccc(F)c2)c(=O)[nH]1 [CBK305026]
Second: CCOC(=O)Cn1nc(C)c(Cc2c(Cl)cccc2Cl)c1CC [CBK113223]
The “% of control remaining” value of the first is lower: 51.9118 for the first, 124.367 for the second.

First: C#CCn1c(=O)n(C)n(C)c1=O [CBK023151]
Second: CC(=O)Cn1nnnc1C [CBK020588]
The “% of control remaining” value of the first is lower: 61.1565 for the first, 95.5298 for the second.

First: Cc1ccn(-c2ccc(N3CCC4(CCOC4)C3)nn2)n1 (centres unmarked) [CBK306302]
Second: c1ccc2c(Sc3cncc(N4CCCC4)n3)cccc2c1 [CBK089594]
The “% of control remaining” value of the first is lower: 35.173 for the first, 85.2412 for the second.

Compared with `COc1ccc2[nH]c3c(c2c1)CCNC31CCN(C(=O)NC(C)(C)C)CC1` [CBK047069], `Cc1ccc(C(C)(C)C(=O)N2CCC(CC(=O)N(C)C)CC2)cc1` [CBK281973] is lower in “% of control remaining” value: 100.477 for the first, 98.1617 for the second.

Compared with `N#Cc1ccc(C(=O)N2C[C@@H]3C[C@H](C2)c2c(-c4cccc(C#N)c4)ccc(=O)n2C3)cc1` [CBK289196], `O=C(C1CCCCC1)N1CC(n2nc(-c3ccccc3)ccc2=O)C1` [CBK284616] is higher in “% of control remaining” value: 100.872 for the first, 112.642 for the second.

Compared with `CN(CC(N)=O)c1nc(-c2cccnc2)nc2ccccc12` [CBK306346], `Cc1nn(C)cc1C(=O)NC(Cc1ccsc1)c1cccnc1` (centres unmarked) [CBK285392] is lower in “% of control remaining” value: 93.6165 for the first, 89.0834 for the second.

Going from `COc1ccc(C(=O)/C=C(\Nc2cccc(C(F)(F)F)c2)C(=O)O)cc1` [CBK264387] to `COc1cccc(C(=O)Nc2ccc(Br)cc2C(=O)O)c1` [CBK022487], the “% of control remaining” value falls from 111.584 to 98.9102.

Going from `CCN1CC(C(=O)N2CCCC(COc3ccc(F)cc3)C2)CC1=O` (centres unmarked) [CBK282028] to `Cn1c(N2CCC(C(=O)NCC3CC3)CC2)nc2ccccc21` [CBK283957], the “% of control remaining” value falls from 103.237 to 86.1577.

First: Cc1occc1C(=O)Nc1nc(CC(=O)N2CC(C)SC(C)C2)cs1 (centres unmarked) [CBK306271]
Second: COC(=O)c1c(NC(=O)c2c(C)c(-c3ccc(Cl)cc3Cl)nc3ccccc23)sc2c1CCC(C)C2 (centres unmarked) [CBK262644]
The “% of control remaining” value of the first is lower: 47.6525 for the first, 106.037 for the second.

Going from `O=C(OCCC1SC(NC2CC3C=CC2C3)=NC1=O)c1cc(F)ccc1F` (centres unmarked) [CBK200059T] to `O=C(Cn1ccccc1=O)Nc1ccc(OCC(F)(F)F)nc1` [CBK304556], the “% of control remaining” value falls from 95.6191 to 44.181.

First: COc1ccc(Cn2nc3nnc(-c4ccc(F)cc4)c(-c4ccc(F)cc4)n3c2=O)cc1 [CBK286183]
Second: CC(C)(Oc1ccc(Cl)cc1)C(=O)Nc1nnc[nH]1 [CBK288220]
The “% of control remaining” value of the first is lower: 96.6595 for the first, 118.624 for the second.

Compared with `COc1cc(C)c(S(=O)(=O)n2c(C)nc3ccccc32)cc1C` [CBK265464], `COc1nc(N(C)C)nc(N2CC(=O)N(c3ccccc3)C2=N)n1` [CBK269079] is higher in “% of control remaining” value: 91.0785 for the first, 91.1962 for the second.

First: O=C(NCC1CCCO1)[C@H]1CCCC[C@H]1C(=O)O (some centres unmarked) [CBK287104]
Second: CC(=O)Nc1ccc(C#CC2(NC(=O)C3CC3)CCCCC2)cn1 [CBK284676]
The “% of control remaining” value of the first is higher: 104.741 for the first, 78.6201 for the second.

First: CSc1nc(O)c(C(c2ccc(C(=O)O)cc2)c2c(O)nc(SC)nc2O)c(O)n1 [CBK265288]
Second: CC(=O)N1CCC[C@H]2NC(=O)CNC(=O)C3(C/C=C/C[C@H]21)CCNCC3 [CBK292173]
The “% of control remaining” value of the first is lower: 81.846 for the first, 84.0973 for the second.
